Measurements taken from PubChem BioAssay AID488969 (Vanderbilt High Throughput Screening Facility, 2010).
Whole data set: some 110,000 compounds, median “z-score” near -0.1, cut for the highest 2% near 2. The list shows a part of the results.

Each compound was assayed against Metabotropic glutamate receptor 8 (Rattus norvegicus) (UniProt P70579) (assay: rat mGluR8 modulators via GIRK flux, primary screen, cell-based, thallium flux, HTS (AID 488969)). Conditions: HEK293 rat mGluR8, GIRK (G protein-gated inwardly rectifying potassium channel) thallium flux, FluoZin2; at 10 µM; stronger effect = higher value; submaximal glutamate (EC20) added with thallium.
Sequence of UniProt P70579 (P70579 whole entry, looked up): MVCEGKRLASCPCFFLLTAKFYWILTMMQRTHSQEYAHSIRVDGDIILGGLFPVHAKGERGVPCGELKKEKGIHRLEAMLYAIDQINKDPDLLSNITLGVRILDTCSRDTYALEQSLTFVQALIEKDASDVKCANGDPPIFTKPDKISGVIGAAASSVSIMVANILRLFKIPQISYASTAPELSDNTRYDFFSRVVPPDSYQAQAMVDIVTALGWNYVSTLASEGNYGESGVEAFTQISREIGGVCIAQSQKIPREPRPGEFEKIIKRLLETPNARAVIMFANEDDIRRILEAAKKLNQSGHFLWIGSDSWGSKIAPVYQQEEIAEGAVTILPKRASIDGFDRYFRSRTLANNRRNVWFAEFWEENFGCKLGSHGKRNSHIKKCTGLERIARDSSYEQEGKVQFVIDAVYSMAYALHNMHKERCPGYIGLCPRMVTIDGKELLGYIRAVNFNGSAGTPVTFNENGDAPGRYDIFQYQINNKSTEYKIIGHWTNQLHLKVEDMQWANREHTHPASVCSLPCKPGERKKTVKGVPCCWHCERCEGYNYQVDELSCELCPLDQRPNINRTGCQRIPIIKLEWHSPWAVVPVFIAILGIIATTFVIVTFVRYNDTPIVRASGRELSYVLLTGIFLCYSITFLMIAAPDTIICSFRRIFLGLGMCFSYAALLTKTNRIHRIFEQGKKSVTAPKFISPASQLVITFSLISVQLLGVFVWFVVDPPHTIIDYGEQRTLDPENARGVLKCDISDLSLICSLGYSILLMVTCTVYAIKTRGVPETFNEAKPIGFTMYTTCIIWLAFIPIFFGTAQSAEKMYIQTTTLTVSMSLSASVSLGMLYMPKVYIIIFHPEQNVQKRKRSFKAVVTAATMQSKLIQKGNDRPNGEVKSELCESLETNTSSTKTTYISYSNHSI

Question: How did the z-score turn out when `CC(NS(=O)(=O)c1ccccc1)C(N)=O` (stereo not given) was run?
Answer: The z-score was -0.0342.

Question: `CCOc1ccccc1NC(=O)N1C2CCCC1CC(NC(=O)C1CC1)C2` (stereo not given) was tested. Which z-score did it give?
Answer: The z-score was -0.0112.

Question: How did the z-score turn out when `CC(C)C(c1nnnn1Cc1ccco1)N1CCN(c2cccc(Cl)c2)CC1` (stereo not given) was run?
Answer: Its z-score is -1.14.

Question: `CC(=O)N1CCN(C(=O)Cn2c(=O)oc3ccccc32)CC1` was tested. Which z-score did it give?
Answer: Its z-score is -0.443.

Question: For `CCN1CCN(C(=S)Nc2ccccc2Cl)CC1`, which z-score is on record?
Answer: The z-score was -0.199.

Question: How did the z-score turn out when `CCCn1c(SCC(=O)N2CCc3ccccc3C2)nc2c1c(=O)n(C)c(=O)n2C` was run?
Answer: Its z-score is 0.622.

Question: How did the z-score turn out when `O=C1CC(C(=O)Nc2ccccc2)N=C(N2CCOCC2)N1` (stereo not given) was run?
Answer: Its z-score is -0.126.

Question: Which z-score does the source give for `Cc1cc(NC(=O)CCc2ccccc2)c([N+](=O)[O-])cc1C` here?
Answer: Its z-score is 1.8.

Question: With `COc1ccccc1C1(O)CC2CCC(C1)N2S(=O)(=O)c1ccc(C(C)=O)cc1` (stereo not given) as the compound, how does the z-score read?
Answer: Its z-score is 0.222.

Question: For `CC(=O)Nc1ccc(S(=O)(=O)N2CCN(C34CC5CC(CC(C5)C3)C4)CC2)cc1`, which z-score is on record?
Answer: The z-score was 0.892.

Question: With `CC1CN(Cc2cc(=O)n3ccsc3n2)CC(C)O1` (stereo not given) as the compound, how does the z-score read?
Answer: Its z-score is 0.53.

Question: For `O=C(CSc1nnc(Cc2ccccc2)n1Cc1ccccc1)NCc1ccco1`, which z-score is on record?
Answer: Its z-score is -0.453.

Question: How did the z-score turn out when `CS(=O)(=O)N1CCN(c2ccccc2NC(=O)CSc2ccc(Cl)cc2)CC1` was run?
Answer: Its z-score is -0.277.

Question: How did the z-score turn out when `Cc1ccc(-c2cc(C(=O)O)c3sc(N4CCCCC4)nc3n2)cc1` was run?
Answer: Its z-score is -0.203.

Question: Which z-score does the source give for `CC1=C(C#N)C(NC(=O)C2CC2)(C(F)(F)F)C(=O)N1` (stereo not given) here?
Answer: The z-score was -0.127.

Question: With `CC12CCC(=O)N1c1c(sc3nc(N4CCOCC4)c4c(c13)CCCC4)C(=O)N2` (stereo not given) as the compound, how does the z-score read?
Answer: Its z-score is -1.63.

Question: For `O=[N+]([O-])c1ccc(NC(=S)NCCc2ccc(F)cc2)cc1`, which z-score is on record?
Answer: The z-score was 1.65.

Question: For `COc1cccc(N(C(=O)C2COc3ccccc3O2)C(C(=O)NC2CCCCC2)c2ccc(O)cc2)c1` (stereo not given), which z-score is on record?
Answer: Its z-score is -0.109.

Question: With `O=C(CN(c1ccccc1F)S(=O)(=O)c1ccccc1)NC1CCCCCC1` as the compound, how does the z-score read?
Answer: Its z-score is -0.205.

Question: How did the z-score turn out when `CCCCOc1ccc(/C=N/NC(=S)Nc2cccc(C)c2C)cc1` was run?
Answer: The z-score was 0.714.

Question: `COc1cc(C(=O)NCc2nnc(SCC(=O)Nc3nc4ccc(C)cc4s3)o2)cc(OC)c1OC` was tested. Which z-score did it give?
Answer: The z-score was -0.24.

Question: `O=C(c1ccccc1)c1ccc(OCCCCN2CCCCC2)cc1` was tested. Which z-score did it give?
Answer: Its z-score is -0.455.

Question: Which z-score does the source give for `O=C(Cc1ccccc1)Nc1ccc(C(=O)O)cc1` here?
Answer: Its z-score is -0.0673.

Question: How did the z-score turn out when `CC(=O)N1N=C(c2cccc(Cl)c2)OC1c1cccc([N+](=O)[O-])c1` (stereo not given) was run?
Answer: Its z-score is -0.567.

Question: For `CC1(c2ccccc2)NC(=O)N(CC(=O)NC(=O)NCc2ccco2)C1=O` (stereo not given), which z-score is on record?
Answer: The z-score was -0.363.

Question: For `CN(C)c1nc(-c2ccccc2)cc(C(F)(F)F)c1C#N`, which z-score is on record?
Answer: Its z-score is -0.292.

Question: How did the z-score turn out when `Clc1ccc(N2CCN(c3cnc4ccccc4n3)CC2)cc1` was run?
Answer: Its z-score is -0.483.

Question: With `Cc1cc(NS(=O)(=O)c2ccc(NC(=S)NC(=O)c3ccc(F)cc3)cc2)no1` as the compound, how does the z-score read?
Answer: The z-score was -0.0103.

Question: `CC1(C)CC(O)CC(C)(C)N1CC(O)COCCOc1ccc(Br)cc1` (stereo not given) was tested. Which z-score did it give?
Answer: The z-score was -0.471.

Question: `Cc1ccc(NC(=O)c2ccnc(C(C)(C)C)c2)cc1` was tested. Which z-score did it give?
Answer: Its z-score is -2.95.
